# The supplement of paper PMC9588766
# Where a name gives a salt, the structure may show the parent alone. ± gives the standard deviation of the averaged measurements. In all, about 2,000 compounds were measured (“cell viability relative to DMSO control (compound alone)”: median about 0.98, lowest 2% from about 0.23 on). Some of the results follow.
# System: PDC-DUC18828
# Assay: cell viability relative to DMSO control (compound alone) (fraction); PDC-DUC18828 is a patient-derived cholangiocarcinoma cell line; higher = less growth inhibition
# Details: 1 µM; 72 h
# Procedure: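 Selleck Bioactive library screen in the patient-derived FGFR2-G3BP2 fusion-positive ICC cell line PDC-DUC18828 (500 cells/well). Each compound was tested at 1 uM alone, in triplicate, for 72 h. Viability was read by CellTiter-Glo and normalised to plate DMSO controls.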
row,Compound,cell viability
1,CCOC(=O)c1ccc(OC(=O)CCCCCNC(=N)N)cc1 [Gabexate Mesylate],1.05 ± 0.054
2,COc1cccc(-c2ccc(NC(=O)C3=C(C(=O)O)CCC3)c(F)c2)c1 [Vidofludimus],1.06 ± 0.069
3,Clc1cccc(-c2nnnn2Cc2cccnc2)c1Cl,0.927 ± 0.025
4,C/C=C1/[C@H](O[C@@H]2O[C@H](CO)[C@@H](O)[C@H](O)[C@H]2O)OC=C(C(=O)OC)[C@H]1CC(=O)OCCc1ccc(O)c(O)c1 [Oleuropein],1.01 ± 0.05
5,Cc1cc(=O)oc2cc(O)ccc12 [4-Methylumbelliferone (4-MU)],1.06 ± 0.011
6,CC(C)C[C@@H](C=O)NC(=O)[C@H](CC(C)C)NC(=O)[C@H](CC(C)C)NC(=O)OCc1ccccc1,0.0214 ± 0.002
7,COC1=CC(c2cc3ccccc3[nH]2)=N/C1=C\c1[nH]c(C)cc1C [Obatoclax Mesylate (GX15-070)],0.253 ± 0.022
8,N=C(N)NC(=N)N1CCOCC1 [Moroxydine HCl],1.02 ± 0.09
9,CC(=O)Oc1cccc2c1C(=O)c1c(OC(C)=O)cc(C(=O)O)cc1C2=O [Diacerein],0.962 ± 0.041
10,CCN(CC)Cc1ccc2cc(COC(=O)Nc3ccc(C(=O)NO)cc3)ccc2c1 [Givinostat (ITF2357)],0.54 ± 0.033
11,CC(C)(C#N)c1ccc(N2C(=O)OCc3cnc4ccc(-c5cnc6ccccc6c5)cc4c32)cc1,0.931 ± 0.064
12,COc1ccc(NS(=O)(=O)c2ccc(N)cc2)nn1 [Sulfamethoxypyridazine],1.02 ± 0.026
13,Nc1ccc(C(=O)NCC(=O)O)cc1 [4-Aminohippuric Acid],0.932 ± 0.031
14,CCCC(=O)O[C@]1(C(=O)COC(C)=O)CC[C@H]2[C@@H]3C[C@H](F)C4=CC(=O)C=C[C@]4(C)[C@@]3(F)[C@@H](O)C[C@@]21C [Difluprednate],0.956 ± 0.048
15,OC[C@H]1O[C@@H](Oc2ccc(O)cc2)[C@H](O)[C@@H](O)[C@@H]1O [Arbutin],0.955 ± 0.052
16,O=C(c1ccc(C(=O)N2CCC(N3CCCC3)CC2)c(Nc2ccccc2)c1)N1CCC(N2CCCC2)CC1,0.989 ± 0.046
17,NC(=O)c1cnc2[nH]ccc2c1N[C@@H]1[C@@H]2CC3C[C@H]1C[C@@](O)(C3)C2,0.832 ± 0.026
18,CCN1CCN(C(=O)N[C@@H](C(=O)N[C@@H]2C(=O)N3[C@@H]2SC(C)(C)[C@@H]3C(=O)O)c2ccccc2)C(=O)C1=O [Piperacillin Sodium],1.06 ± 0.04
19,CN(NC(=O)CC(=O)NN(C)C(=S)c1ccccc1)C(=S)c1ccccc1 [Elesclomol (STA-4783)],0.0677 ± 0.026
20,CO[C@@H]1[C@@H](OC(N)=O)[C@@H](O)[C@H](Oc2ccc3c(O)c(NC(=O)c4ccc(O)c(CC=C(C)C)c4)c(=O)oc3c2C)OC1(C)C [Novobiocin Sodium],0.975 ± 0.012
21,CC(=O)OCOC(=O)CN(CC(=O)OCOC(C)=O)c1ccccc1OCCOc1ccccc1N(CC(=O)OCOC(C)=O)CC(=O)OCOC(C)=O,0.87 ± 0.075
22,O=C(O[C@H]1CN2CCC1CC2)N1CCc2ccccc2[C@@H]1c1ccccc1 [Solifenacin succinate],0.97 ± 0.058
23,NC(=O)N/N=C/c1ccc([N+](=O)[O-])o1 [Nitrofural],0.986 ± 0.045
24,CC(C)C[C@H](NC(=O)[C@H](CCc1ccccc1)NC(=O)CN1CCOCC1)C(=O)N[C@@H](Cc1ccccc1)C(=O)N[C@@H](CC(C)C)C(=O)[C@@]1(C)CO1 [Carfilzomib (PR-171)],0.0263 ± 0.0069

row,Compound,cell viability
1,O=S(=O)(c1ccccc1)c1cnc2c(N3CCNCC3)cccc2c1,1.03 ± 0.02
2,CN(C)CCC[C@@]1(c2ccc(F)cc2)OCc2cc(C#N)ccc21 [Escitalopram Oxalate],1.01 ± 0.074
3,CCCC(=O)Nc1ncnc2c1ncn2[C@@H]1O[C@@H]2COP(=O)(O)O[C@H]2[C@H]1OC(=O)CCC [Dibutyryl-cAMP (Bucladesine)],0.942 ± 0.042
4,CC1=CC(=O)NS(=O)(=O)O1 [Acesulfame Potassium],0.971 ± 0.034
5,CN1CCCC(n2nc(Cc3ccc(Cl)cc3)c3ccccc3c2=O)CC1 (configuration not stated) [Azelastine HCl],1.07 ± 0.054
6,Cc1cc([N+](=O)[O-])ccc1NS(=O)(=O)c1cc(Cl)ccc1Cl,0.903 ± 0.084
7,COc1ccc(COc2ccc(Cc3cnc(N)nc3N)cc2OC)cc1,0.99 ± 0.017
8,O=C(O)CCNc1cc(N2CCc3ccccc3CC2)nc(-c2ccccn2)n1,0.97 ± 0.012
9,O=C(N/N=C/c1ccc(O)c(O)c1)c1cc2ccccc2cc1O [Dynasore],1 ± 0.039
10,C=CC[C@@H]1/C=C(\C)C[C@H](C)C[C@H](OC)[C@H]2O[C@@](O)(C(=O)C(=O)N3CCCC[C@H]3C(=O)O[C@H](/C(C)=C/[C@@H]3CC[C@@H](O)[C@H](OC)C3)[C@H](C)[C@@H](O)CC1=O)[C@H](C)C[C@@H]2OC [Tacrolimus (FK506)],0.901 ± 0.017
11,COc1ccc2[nH]cc(CCNC(C)=O)c2c1 [Melatonin],1 ± 0.036
12,O=C([O-])c1ccccc1O.[Na+] [Sodium salicylate],0.985 ± 0.037
13,Cc1ccc(C(=O)c2cc(O)c(O)c([N+](=O)[O-])c2)cc1 [Tolcapone],0.981 ± 0.051
14,CCN(Cc1ccncc1)C(=O)C(CO)c1ccccc1 (configuration not stated) [Tropicamide],1.03 ± 0.013
15,CC(=O)O/N=C1\C(=O)N(Cc2cc(Cl)ccc2Cl)c2ccc(Cl)cc21,0.949 ± 0.022
16,O=C(Cc1cccc(OC(F)(F)F)c1)Nc1ccc(CCCCc2nnc(NC(=O)Cc3ccccn3)s2)nn1,0.897 ± 0.015
17,Cc1ncc([N+](=O)[O-])n1CCO [Metronidazole],0.987 ± 0.05
18,CCN(CC)CC#CCOC(=O)C(O)(c1ccccc1)C1CCCCC1 (configuration not stated) [Oxybutynin chloride],0.932 ± 0.029
19,CCN(CC)CC#CCOC(=O)C(O)(c1ccccc1)C1CCCCC1 (configuration not stated) [Oxybutynin],1.04 ± 0.014
20,COc1ccc(-c2oc3c(CC=C(C)C)c(O[C@@H]4O[C@H](CO)[C@@H](O)[C@H](O)[C@H]4O)cc(O)c3c(=O)c2O[C@@H]2O[C@@H](C)[C@H](O)[C@@H](O)[C@H]2O)cc1 [Icariin],0.924 ± 0.033
21,CCn1cc(C(=O)O)c(=O)c2ccc(C)nc21 [Nalidixic acid],0.968 ± 0.011
22,COc1ccc2cc(CCC(C)=O)ccc2c1 [Nabumetone],0.989 ± 0.056
23,O=C(CCCN1CC=C(n2c(=O)[nH]c3ccccc32)CC1)c1ccc(F)cc1 [Droperidol],1.09 ± 0.037
